Measured values reported in US9610259B2, “Compositions and methods for treating an autism spectrum disorder” (Children's Hospital Medical Center, priority 2014, dated 2017).

Legend:
persons with ASD = details: in vivo; cited from earlier work
patient with ASD [1] = assay: ADOS, Y-BOCS and EAT-26 during intranasal ketamine treatment, Example 3
patient with ASD [2] = assay: Depression rating scales (MADRS, BDI) and reported mood during intranasal ketamine treatment, Example 3
[3] = system: patients with ASD / Autistic Disorder; assay: Tolerability, adverse effects and vital signs after intranasal ketamine
[4] = system: patients with ASD / Autistic Disorder
[5] = see EP 1567145 B1; cited from earlier work
BTBR mice (autism model) = assay: 3 Chamber Social Test; assay type: in vivo, mouse; details: 10 mg/kg once weekly for 5 weeks
Description: Female B6 (WT; control) and BTBR mice (autism model) were mated with males of their respective strains. Pups from these mating strategy were used as subjects. At postnatal day 60 mice were either dosed with a saline vehicle (VEH) or 10 mg/kg racemic ketamine HCL (10 KET) once weekly for 5 weeks. On the 5th week mice were tested in the 3 Chamber Social Test 24 h following dosing. Mice were acclimated to the center chamber for 5 minutes and then allowed to explore all three empty chambers for 10 minutes. The test phase followed immediately in which a stranger mouse contained inside a metal bar chamber (stranger) was placed in one side chamber and an empty chamber (novel object) was placed in the other outside chamber. The VEH exposed BTBR mice avoided the chamber containing the stranger mouse which is a behavior typically reported in the literature and reminiscent of autism like social avoidance or disinterest.

CC12CC3CC(C)(C1)CC(N)(C3)C2 [memantine]
behavioural adverse effect in ASD (persons with ASD): irritability promoting effects

CNC1(c2ccccc2Cl)CCCCC1=O (stereo not shown) [ketamine, 2-(2-chlorophenyl)-2-(methylamino)-cyclohexanone]
ADOS score (patient with ASD [1]; repeat ADOS at six weeks): no change | Y-BOCS or EAT-26 scores (patient with ASD [1]; throughout treatment): little change | BDI score (patient with ASD [2]; person with ASD, IN ketamine 20-60 mg, Day 43, baseline BDI 35): 5 | MADRS score (patient with ASD [2]; person with ASD, IN ketamine 20-60 mg, Day 43, baseline MADRS 44): 15 | return to baseline mood post dose (patient with ASD [2]; post doses on days 1, 7 and 14 (20-40 mg IN)): 3 to 4 days | BDI and MADRS scores following each dose (patient with ASD [2]; within 24 hours following each IN dose (20 or 40 mg)): dramatically improved | duration of mild headaches following each dose ([3]; Example 3 patient, IN 20-40 mg): 6 to 10 h | duration of transient sedation, dizziness, numbness of limbs and face, blurred vision post-dose ([3]; Example 3 patient, IN 20-40 mg): approximately 90 minutes | blood pressure, heart rate and temperature ([3]; Example 3 patient, monitored post dose): stable | tolerability ([3]; Example 4, person, 20 mg then 40 mg weekly IN): minor sedation, but otherwise tolerated ketamine well | length of gaze fixation on the eye region of fearful, happy or calm faces ([4]; Example 3 patient, over the course of treatment, FIG. 1): significantly increased | Fixation Duration on Eyes, post-dose ([4]; Example 4, person, 40 mg IN weekly, pre-dose 4.09, FIG. 2): 8.33 s

CN[C@]1(c2ccccc2Cl)CCCCC1=O [S-ketamine]
potency relative to R-ketamine [5]: two to three

CNC1(c2ccccc2Cl)CCCCC1=O (racemic) [racemic ketamine HCL]
preference for the stranger mouse (BTBR mice (autism model); BTBR mice, tested 24 h following dosing): increased preference | motor behavior (BTBR mice (autism model); WT (B6) and BTBR mice): did not alter

Where a name gives a salt, the structure may show the parent alone.
